Experimental data from publication PMC3060616.
No constants are given. Whether binding was seen depends on the method and setting. Binding seen in cells or lysates may run through a third protein. Some results given as binding are weak or reduced against the parent protein; the word gives no strength.

Tests used:
[1] = target: T1, LpoB (YcfM), immobilised / added protein (E. coli) (UniProt P0AB38); test: pull-down; affinity chromatography: E. coli membrane fraction applied in 400 mM NaCl to sepharose columns with immobilised protein, empty sepharose as control; washed, eluted with 2 M NaCl; SDS-PAGE, Western blot and immunodetection of Lpo proteins or PBPs; only the target purified
T1 sequence: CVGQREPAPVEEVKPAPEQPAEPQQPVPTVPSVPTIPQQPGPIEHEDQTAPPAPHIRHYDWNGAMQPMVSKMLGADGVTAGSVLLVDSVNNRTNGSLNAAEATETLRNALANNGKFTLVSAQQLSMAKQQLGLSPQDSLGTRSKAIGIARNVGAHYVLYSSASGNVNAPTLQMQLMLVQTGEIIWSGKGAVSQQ

[2] = target: T2, LpoA (YraM), immobilised / added protein (E. coli) (UniProt P45464); test: as above
T2 sequence: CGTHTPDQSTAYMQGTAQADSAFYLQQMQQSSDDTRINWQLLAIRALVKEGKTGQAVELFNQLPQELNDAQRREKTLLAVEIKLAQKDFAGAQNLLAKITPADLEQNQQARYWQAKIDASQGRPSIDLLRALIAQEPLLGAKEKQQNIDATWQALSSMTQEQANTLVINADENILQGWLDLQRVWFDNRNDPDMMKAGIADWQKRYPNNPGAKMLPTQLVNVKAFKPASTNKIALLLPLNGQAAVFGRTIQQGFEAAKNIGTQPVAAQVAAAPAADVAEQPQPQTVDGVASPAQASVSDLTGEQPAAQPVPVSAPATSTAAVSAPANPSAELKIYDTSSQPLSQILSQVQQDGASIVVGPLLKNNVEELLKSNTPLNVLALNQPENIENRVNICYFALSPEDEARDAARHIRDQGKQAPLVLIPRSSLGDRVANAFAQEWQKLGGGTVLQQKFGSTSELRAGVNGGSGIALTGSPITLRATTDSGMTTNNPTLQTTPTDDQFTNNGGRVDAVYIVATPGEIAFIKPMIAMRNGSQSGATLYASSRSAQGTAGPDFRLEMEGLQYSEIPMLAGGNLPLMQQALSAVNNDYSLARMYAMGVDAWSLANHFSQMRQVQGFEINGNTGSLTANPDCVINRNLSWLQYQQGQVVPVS

[3] = target: T3, LpoA (YraM), endogenous (E. coli (endogenous in E. coli)) (UniProt P45464); test: cross-linking + co-IP; E. coli cells treated with DTSSP cross-linker in vivo; membrane fractions immunoprecipitated with LpoA or PBP1B antibodies and protein G-agarose; cross-link reverted with reducing agent; immunodetection of PBP1A or LpoB
T3 sequence: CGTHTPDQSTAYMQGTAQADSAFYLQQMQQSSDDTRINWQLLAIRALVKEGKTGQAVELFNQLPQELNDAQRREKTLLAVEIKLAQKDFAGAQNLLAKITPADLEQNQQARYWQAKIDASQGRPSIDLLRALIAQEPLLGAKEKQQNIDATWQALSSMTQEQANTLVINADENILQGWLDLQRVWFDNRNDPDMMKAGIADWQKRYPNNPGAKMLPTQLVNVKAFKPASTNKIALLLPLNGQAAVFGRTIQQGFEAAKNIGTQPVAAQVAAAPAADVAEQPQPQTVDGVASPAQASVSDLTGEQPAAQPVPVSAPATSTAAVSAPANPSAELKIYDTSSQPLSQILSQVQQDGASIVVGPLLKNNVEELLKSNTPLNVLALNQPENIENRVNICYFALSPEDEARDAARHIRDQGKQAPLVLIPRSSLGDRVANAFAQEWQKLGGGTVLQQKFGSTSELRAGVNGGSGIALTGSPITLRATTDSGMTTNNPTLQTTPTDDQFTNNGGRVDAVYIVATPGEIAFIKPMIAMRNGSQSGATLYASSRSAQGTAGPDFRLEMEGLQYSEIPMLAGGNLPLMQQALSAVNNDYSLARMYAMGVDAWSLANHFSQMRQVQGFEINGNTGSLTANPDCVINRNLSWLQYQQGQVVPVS

Binder	binding [1]	binding [2]	binding [3]
PBP1A, endogenous (enzyme, UniProt P02918 1-850) MKFVKYFLILAVCCILLGAGSIYGLYRYIEPQLPDVATLKDVRLQIPMQIYSADGELIAQYGEKRRIPVTLDQIPPEMVKAFIATEDSRFYEHHGVDPVGIFRAASVALFSGHASQGASTITQQLARNFFLSPERTLMRKIKEVFLAIRIEQLLTKDEILELYLNKIYLGYRAYGVGAAAQVYFGKTVDQLTLNEMAVIAGLPKAPSTFNPLYSMDRAVARRNVVLSRMLDEGYITQQQFDQTRTEAINANYHAPEIAFSAPYLSEMVRQEMYNRYGESAYEDGYRIYTTITRKVQQAAQQAVRNNVLDYDMRHGYRGPANVLWKVGESAWDNNKITDTLKALPTYGPLLPAAVTSANPQQATAMLADGSTVALSMEGVRWARPYRSDTQQGPTPRKVTDVLQTGQQIWVRQVGDAWWLAQVPEVNSALVSINPQNGAVMALVGGFDFNQSKFNRATQALRQVGSNIKPFLYTAAMDKGLTLASMLNDVPISRWDASAGSDWQPKNSPPQYAGPIRLRQGLGQSKNVVMVRAMRAMGVDYAAEYLQRFGFPAQNIVHTESLALGSASFTPMQVARGYAVMANGGFLVDPWFISKIENDQGGVIFEAKPKVACPECDIPVIYGDTQKSNVLENNDVEDVAISREQQNVSVPMPQLEQANQALVAKTGAQEYAPHVINTPLAFLIKSALNTNIFGEPGWQGTGWRAGRDLQRRDIGGKTGTTNSSKDAWFSGYGPGVVTSVWIGFDDHRRNLGHTTASGAIKDQISGYEGGAKSAQPAWDAYMKAVLEGVPEQPLTPPPGIVTVNIDRSTGQLANGGNSREEYFIEGTQPTQQAVHEVGTTIIDNGEAQELF	no binding	binds	binds
PBP1B, endogenous (enzyme, UniProt P02919 1-844) MAGNDREPIGRKGKPTRPVKQKVSRRRYEDDDDYDDYDDYEDEEPMPRKGKGKGKGRKPRGKRGWLWLLLKLAIVFAVLIAIYGVYLDQKIRSRIDGKVWQLPAAVYGRMVNLEPDMTISKNEMVKLLEATQYRQVSKMTRPGEFTVQANSIEMIRRPFDFPDSKEGQVRARLTFDGDHLATIVNMENNRQFGFFRLDPRLITMISSPNGEQRLFVPRSGFPDLLVDTLLATEDRHFYEHDGISLYSIGRAVLANLTAGRTVQGASTLTQQLVKNLFLSSERSYWRKANEAYMALIMDARYSKDRILELYMNEVYLGQSGDNEIRGFPLASLYYFGRPVEELSLDQQALLVGMVKGASIYNPWRNPKLALERRNLVLRLLQQQQIIDQELYDMLSARPLGVQPRGGVISPQPAFMQLVRQELQAKLGDKVKDLSGVKIFTTFDSVAQDAAEKAAVEGIPALKKQRKLSDLETAIVVVDRFSGEVRAMVGGSEPQFAGYNRAMQARRSIGSLAKPATYLTALSQPKIYRLNTWIADAPIALRQPNGQVWSPQNDDRRYSESGRVMLVDALTRSMNVPTVNLGMALGLPAVTETWIKLGVPKDQLHPVPAMLLGALNLTPIEVAQAFQTIASGGNRAPLSALRSVIAEDGKVLYQSFPQAERAVPAQAAYLTLWTMQQVVQRGTGRQLGAKYPNLHLAGKTGTTNNNVDTWFAGIDGSTVTITWVGRDNNQPTKLYGASGAMSIYQRYLANQTPTPLNLVPPEDIADMGVDYDGNFVCSGGMRILPVWTSDPQSLCQQSEMQQQPSGNPFDQSSQPQQQPQQQPAQQEQKDSDGVAGWIKDMFGSN	binds	no binding	
